Assay results from PMC4336329 (PLoS ONE, 2015).
The whole screen tested about 310,000 compounds, of which about 14,000 (4.5%) showed an effect of 50% or more. The effect is printed as a negative number. The list shows a part of the results. Where a SMILES comes first, the peptide text is derived from it. The star is where a group is joined. Boc = CC(C)(C)OC(=O)*; OBn = c1ccc(CO*)cc1

These compounds were tested against human ether-à-go-go-related gene (hERG) potassium channel (human, UniProt Q12809) (assay: primary screen, population patch clamp on CHO cells stably expressing hERG).
Sequence of human ether-à-go-go-related gene (hERG) potassium channel (Q12809 whole entry, looked up): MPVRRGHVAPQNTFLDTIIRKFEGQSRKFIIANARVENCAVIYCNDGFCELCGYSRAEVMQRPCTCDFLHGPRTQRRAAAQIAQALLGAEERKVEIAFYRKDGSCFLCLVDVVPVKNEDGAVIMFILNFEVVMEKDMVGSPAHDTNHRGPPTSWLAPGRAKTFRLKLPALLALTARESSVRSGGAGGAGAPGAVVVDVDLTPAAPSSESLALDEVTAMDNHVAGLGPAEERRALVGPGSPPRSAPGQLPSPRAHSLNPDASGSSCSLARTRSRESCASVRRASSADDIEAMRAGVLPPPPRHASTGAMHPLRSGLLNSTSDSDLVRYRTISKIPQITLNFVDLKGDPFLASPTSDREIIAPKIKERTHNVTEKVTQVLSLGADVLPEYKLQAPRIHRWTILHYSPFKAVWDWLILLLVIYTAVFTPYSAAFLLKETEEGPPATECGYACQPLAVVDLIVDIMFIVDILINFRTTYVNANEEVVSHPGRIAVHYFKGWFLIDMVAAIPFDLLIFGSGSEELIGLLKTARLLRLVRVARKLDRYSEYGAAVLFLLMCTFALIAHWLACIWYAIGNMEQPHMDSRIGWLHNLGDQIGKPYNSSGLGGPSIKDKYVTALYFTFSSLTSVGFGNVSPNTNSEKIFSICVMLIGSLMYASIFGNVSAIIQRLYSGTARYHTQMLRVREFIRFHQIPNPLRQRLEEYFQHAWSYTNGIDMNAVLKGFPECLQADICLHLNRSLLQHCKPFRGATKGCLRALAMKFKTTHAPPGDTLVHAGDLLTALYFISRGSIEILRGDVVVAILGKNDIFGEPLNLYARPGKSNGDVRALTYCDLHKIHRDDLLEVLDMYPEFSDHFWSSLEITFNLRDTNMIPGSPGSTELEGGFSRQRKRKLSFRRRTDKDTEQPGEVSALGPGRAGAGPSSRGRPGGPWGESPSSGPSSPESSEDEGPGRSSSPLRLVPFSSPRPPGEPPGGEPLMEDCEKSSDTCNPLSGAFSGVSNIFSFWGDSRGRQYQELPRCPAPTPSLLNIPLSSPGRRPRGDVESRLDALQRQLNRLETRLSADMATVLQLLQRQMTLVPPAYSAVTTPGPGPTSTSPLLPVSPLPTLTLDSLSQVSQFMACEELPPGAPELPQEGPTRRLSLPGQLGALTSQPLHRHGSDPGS
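Further: peak tail current of the secondary pulse compared with the same well before compound.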

Row | Structure (SMILES) | hERG current change (%, negative = inhibition) at 10uM
1 | Cc1ccc(OCCn2cnc(Cl)c2Cl)cc1 | -15.2%
2 | C/C(=N/NC(=O)c1ccncc1)c1ccc(NC(=O)c2ccc(Cl)cc2Cl)cc1 | 20.5%
3 | N/C(=N\OC(=O)COc1ccccc1)c1ccncc1 | -3.13%
4 | O=C(NNC(=O)C1CC1c1ccccc1)c1cccc([N+](=O)[O-])c1 (stereo not drawn) | -4.13%
5 | COC(=O)c1c(C)oc(C)c1S(=O)(=O)NCC1CC1 | 4.91%
6 | CCOC(=O)c1c(C)[nH]c(C(=O)COC(=O)/C=C/c2cccc(OC)c2OC)c1C | -1.93%
7 | CCCN(CCC)S(=O)(=O)c1ccc(C)cc1 | 6.02%
8 | COc1cc(/C=C2\SC(c3ccc(C)cc3)=NC2=O)cc(OC)c1O | 8.85%
9 | Cc1ccc(NC(=O)CSc2nnc(CNC(=O)c3cccs3)o2)c(C)c1 | 6.79%
10 | O=C(COC(=O)COc1ccc2ccccc2c1)NC1CCCc2ccccc21 (stereo not drawn) | 6.02%
11 | O=C1NC(c2ccccc2)=CC(c2ccccc2)N1 (stereo not drawn) | 20.8%
12 | On1c(-c2ccc(Cl)cc2)nc2ccccc21 | 13.9%
13 | Cc1ccc(N=C2S/C(=C\c3cn(CC(=O)O)c4ccccc34)C(=O)N2C)cc1 | 17.5%
14 | O=C(CN(Cc1ccccc1)C(=O)CCC(=O)Nc1nccs1)NCC1CCCO1 (stereo not drawn) | 13%
15 | Cc1cc(C(=O)Cn2nnc(-c3ccc(Cl)cc3)n2)c(C)n1CC1CCCO1 (stereo not drawn) | -6.08%
16 | CN1c2ccc(C=O)c3c(C=O)ccc(c23)N(C)C1(C)C | -34.5%
17 | CCOC(=O)C1CCCN(C(=O)c2cc(Nc3ccc(OC)cc3)nc3ccccc23)C1 (stereo not drawn) | -15%
18 | Cc1cc(C)cc(N(CC(=O)NC2CCCC2)C(=O)CCC(=O)Nc2cc(C)ccn2)c1 | 12.2%
19 | CCCn1c(C2CCCN2c2nc(-c3cccc(Br)c3)cs2)nc2cc(Cl)c(Cl)cc21 (stereo not drawn) | 15.9%
20 | Cc1nnc(C)n1N | 12.1%
21 | Cc1nn(-c2cccc(C(=O)O)c2)c(C)c1[N+](=O)[O-] | 15.6%
22 | CCOC(=O)c1ccc2c(c1)nc(COc1ccc(OC)cc1)n2CC | -8.73%

Row | Structure (SMILES) | hERG current change (%, negative = inhibition) at 10uM
23 | Cc1occc1-c1nc(-c2ccccn2)no1 | 2.31%
24 | CCNC(=O)Nc1cc(OC)c(OC)cc1C(=O)O | 4.84%
25 | COc1ccc2c(CC(=O)NCc3ccc4c(c3)OCO4)coc2c1 | 0.281%
26 | CN1CCN(C(=O)/C(=C/c2ccccc2Cl)NC(=O)c2ccccc2)CC1 | -10.8%
27 | O=[n+]1cc(-c2ccc(Br)cc2)n([O-])c2c1CCC2 | 1.93%
28 | CCOC(O)[C@H]1N[C@@H](c2ccc(Cl)cc2)[C@@H]([N+](=O)[O-])[C@@H]1c1ccccc1 (stereo partly drawn) | -37%
29 | O=C(Nc1cccc(S(=O)(=O)N2CCOCC2)c1)c1ccc2c(=O)n3c(nc2c1)CCCCC3 | -73.3%
30 | Cc1nnc(SCC(=O)NC(=O)NC2CCCC2)n1N | 14.9%
31 | CC(NC(=O)OC(C)(C)C)C(=O)NC(CCC(=O)OCc1ccccc1)C(N)=O (stereo not drawn) (Boc-Ala-Glu(OBn)-NH2; configuration not given here) | 11.7%
32 | NC(=O)CC(NC(=O)c1ccccc1)c1ccc(N2CCN(c3ccc(F)cc3)CC2)c([N+](=O)[O-])c1 (stereo not drawn) | 16.2%
33 | Cc1ccc(S(=O)(=O)NN2C(=O)/C(=C\c3ccc(Cl)cc3)SC2=S)cc1 | 18.8%
34 | O=C(O)C1CC=CCC1C(=O)NNc1ccccc1 (stereo not drawn) | 19.7%
35 | CN(CC(=O)Nc1c(Cl)cccc1Cl)C(=O)c1cccc(S(=O)(=O)NCc2ccccc2)c1 | -23.2%
36 | Cc1cc(C)cc(NC(=O)C(NCCN2CCOCC2)c2ccccc2)c1.O=C(O)C(=O)O (stereo not drawn) | -7.91%
37 | CCCCN(C)CCNC(=O)c1nn(-c2ccc(OC)cc2)c(=O)c2c1c1ccccc1n2C | -26.3%
38 | CCN(Cc1ccccc1)C(=O)C1CCN(Cc2ccc(SC)cc2)CC1.O=C(O)C(=O)O | -71.8%
39 | Cc1noc2ncnc(Sc3c(Cl)cccc3Cl)c12 | 14.6%
40 | COc1ccc(CC(=O)OCC(=O)Nc2ccc(C(=O)Nc3ccc(OC)cc3)cc2)cc1 | 13.1%
41 | Brc1ccc(/C=N/Nc2ccc3ccccc3n2)cc1 | -13.1%
42 | O=c1[nH]ncc(N2CCCC2)c1Cl | 20.9%
43 | CCOC(=O)N1CCN(Cc2nc(N)nc(Nc3ccccc3C)n2)CC1 | -14.9%
44 | O=C(O)Cn1ccnc1 | 4.81%

Row | Structure (SMILES) | hERG current change (%, negative = inhibition) at 10uM
45 | CNC(=O)CSCc1c(F)cccc1Cl | 17.8%
46 | CCCc1cc(=O)oc2cc(OCC(=O)Nc3ccc(CN4CCOCC4)cc3)c(Cl)cc12 | -3.61%
47 | CCc1nnc(NC(=O)C2CCCCN2S(=O)(=O)c2ccccc2)s1 (stereo not drawn) | 8.18%
48 | COc1ccc(C(=O)CSc2nnnn2C)c(OC)c1 | 22.2%
49 | Cc1nc(Cl)c(C(=O)NCCc2ccccc2)c(C)c1[N+](=O)[O-] | 15.5%
50 | O=C(NCc1ccccn1)Nc1ccc(F)cc1 | 11.9%
51 | CC(=O)Nc1ccc(NC(=O)C2CCCN2C(=O)Nc2cccc(F)c2)cc1 (stereo not drawn) | 24.5%
52 | Cc1cc(NC(=O)CSc2nnc(CNc3ccc(F)cc3)n2C2CCCCC2)no1 | -11.9%
53 | O=C(CSc1nnc(-c2ccncc2)o1)NCc1ccccc1Cl | -2.67%
54 | Cc1nnc(SCC(=O)Nc2nc(-c3ccccc3)cs2)n1N | 2.68%
55 | CCOc1ccc(N2CC(C(=O)NC3=NCCS3)CC2=O)cc1 (stereo not drawn) | 3.35%
56 | COc1cc(NS(=O)(=O)c2ccc(NC(=S)NC(=O)c3ccc(Br)cc3)cc2)ncn1 | 15.6%
57 | COc1ccc(/C=C/c2cc(-c3ccc(C)cc3)o[n+]2C)cc1.F[B-](F)(F)F | -77.1%
58 | CCCC(=O)N1c2ccc(-c3csc(N)n3)cc2CC1C (stereo not drawn) | -7.26%
59 | Cc1occc1C(=O)NNC(=O)NC12CC3CC(CC(C3)C1)C2 | 2.5%
60 | O=C(O)c1cc(NS(=O)(=O)c2ccc(N3CCOCC3)c([N+](=O)[O-])c2)cc(C(=O)O)c1 | 5.06%
61 | O=C1CN(C(=O)/C=C/c2ccccc2F)c2ccccc2N1 | -2.56%
62 | N/C(=N\OC(=O)COc1ccc(Br)cc1)c1cccnc1 | -3.21%
63 | Cc1cc(-n2c(C)cc(C(=O)COc3ccc(F)c(F)c3)c2C)no1 | -34.4%
64 | Cc1cccc(C)c1NC(=O)CN(c1ccccn1)S(=O)(=O)c1ccccc1 | 15.7%
65 | COc1ccccc1/C=C/C(=O)NC(=S)N(C)C1CCCCC1 | 1.35%
66 | CCOc1ccc(C(=O)Nc2cccc(-n3cnnn3)c2)cc1OCC | -40.4%

Row | Structure (SMILES) | hERG current change (%, negative = inhibition) at 10uM
67 | O=c1[nH]c2ccc(Cl)cc2c(O)c1Cc1ccccc1 | 12.6%
68 | CCC(=O)Nc1cc(C(=O)O)ccc1Sc1ccccc1 | 34.5%
69 | CNC(=S)N(Cc1ccc(OC)cc1)Cc1cc2ccc(C)cc2[nH]c1=O | 14%
70 | O=C(CNc1cc(S(=O)(=O)N2CCCC2)ccc1OCC(F)(F)F)Nc1ccc(SC(F)F)cc1 | -14.2%
71 | CCc1cccc(NC(=O)c2ccc3c(=O)n4c(nc3c2)CCCCC4)c1 | -76.6%
72 | COc1cc(OC)cc(C(=O)N2CCN(c3ccc(N4CCOCC4)nn3)CC2)c1 | -4.52%
73 | Cc1ccc(-c2nc(C#N)c(N3CCCCC3)o2)cc1 | 4.17%
74 | CCN(Cc1ccc(OC)c(F)c1)C(=O)CCl | 54.4%
75 | COc1ccc(CCNc2cc(C)nc3c(-c4ccccc4)cnn23)cc1OC | -4.34%
76 | CCOc1ccc(C(C(=O)NC2CCCCC2)N(C(=O)c2ccco2)c2ccc(-n3cnnn3)c(C)c2)cc1 (stereo not drawn) | -21.8%
77 | CC1CCCN(S(=O)(=O)CCNC(=O)c2ccc3c(c2)OCO3)C1 (stereo not drawn) | 3.98%
78 | CCOC(=O)C1CCN(C(=O)c2ccc3c(=O)n4c(nc3c2)CCCCC4)CC1 | 0.673%
79 | Cc1cccc(Nc2cc(C)nc3ccccc23)c1.Cl | -65.4%
80 | S=C(Nc1ccccc1Cl)N(CCN1CCCCC1)Cc1ccco1 | -42.3%
81 | O=C(c1cc([N+](=O)[O-])cc([N+](=O)[O-])c1)N1CCN(Cc2ccc3c(c2)OCO3)CC1 | -58.2%
82 | Cc1[nH]c(C)c(S(=O)(=O)Nc2cccc(Cl)c2C)c1C(=O)N1CCCC1 | -7.43%
83 | COC(=O)CC(NC(=O)c1ccc(C)cc1)c1ccccc1 (stereo not drawn) | 12%
84 | COC(=O)c1c(C)[nH]c(-c2csc(N)n2)c1C | 9.99%
85 | COc1ccccc1CNC(=O)CSC1=NCCS1 | 6.46%
86 | Br.Cc1ccc(Nc2nc(-c3sc(N)nc3C)cs2)cc1 | -1.9%
87 | COc1ccc(N2C(=O)CSC23C(=O)N2c4c(cccc43)C(C)=CC2(C)C)cc1 (stereo not drawn) | 3.11%
